# Measured values from PubChem BioAssay AID1240 (Sanford-Burnham Center for Chemical Genomics, 2008).
# Screen size: about 50,000 compounds; about 800 (1.6%) showed an effect of 50% or more. The list shows a part of the results.
# Target: Bcl-2-like protein 10 (Homo sapiens) (UniProt Q9HD36)
# Assay: TR3 peptide-Bcl-B binding displacers, biochemical primary FP assay, phenotype converters (AID 1240);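 note: 0% = Bcl-B with tracer peptide and DMSO and 100% = tracer peptide lacking Bcl-B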
# Conditions: GST-Bcl-B / FITC-TR3 peptide fluorescence polarization; stronger effect = higher value; compound at 3.75 mg/L
# Chain of UniProt Q9HD36 (Q9HD36 whole entry, looked up): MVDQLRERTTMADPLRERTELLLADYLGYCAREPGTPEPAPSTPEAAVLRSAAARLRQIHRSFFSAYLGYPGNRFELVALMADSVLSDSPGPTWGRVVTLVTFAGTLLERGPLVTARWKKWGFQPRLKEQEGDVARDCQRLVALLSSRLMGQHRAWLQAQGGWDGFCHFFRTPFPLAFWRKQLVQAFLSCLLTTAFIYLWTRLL
row,Compound,displacement [%]
1,CC1=NN(c2ccccc2)C(=O)/C1=C/c1cc(C)n(C)c1C,-1.2
2,CCN(CC)CC(O)COc1ccccc1C(=O)CCc1ccccc1 (stereo unspecified),-1.6
3,Cc1ccc(OCC(=O)Nc2ccccc2O)cc1,13.1
4,COc1ccc([N+](=O)[O-])cc1NC(C)C,9.1
5,COc1cccc2c1N(C(=O)c1ccc(F)cc1)C(C)(C)c1ssc(=S)c1-2,15
6,Cc1sc(NC(=O)c2cc(Cl)ccc2Cl)c(C#N)c1C,-12.1
7,CC(=O)Nc1ccc(Nc2ccc(C(F)(F)F)cc2[N+](=O)[O-])cc1,2.8
8,N#CC1=C(N)SC(N)=C(C#N)C1C1CC=CCC1 (stereo unspecified),-18.6
9,COc1ccc(CN=Cc2c(O)n(-c3ccc(Cl)cc3)c(=O)[nH]c2=O)cc1,-6.6
10,Cc1nn(-c2ccccc2)c(C)c1S(=O)(=O)O,-3.3
11,Cc1ccc2nsnc2c1NC(=O)Cc1ccccc1,-4.4
12,CC(C)(C)c1ccc(OCCNC(=O)/C=C/c2ccccc2)cc1,5.4
13,COc1ccccc1N(CC(=O)N1CCOCC1)S(=O)(=O)c1ccccc1,4.4
14,Cc1cc(C)c(C)c(OCCCCCN2CCCC2)c1,7.4
15,CC(C)c1ccc(/C=C2/SC(=S)N(c3cccc(Cl)c3)C2=O)cc1,-1
16,CCOc1ccc(CN2CCN(Cc3cc(Br)ccc3O)CC2)cc1,-2.7
17,COC(=O)C(C)N(c1ccc(OC)cc1)S(C)(=O)=O (stereo unspecified),-10.7
18,CCOc1cccc2sc(NC(=O)C(C)C)nc12,-2.8
19,Cc1cc(C)cc(NC(=O)Cc2ccc([N+](=O)[O-])cc2)c1,-9.7
20,O=C(O)CCCCCN1C(=O)C(O)=C(C(=O)/C=C/c2ccccc2)C1c1cccc(F)c1 (stereo unspecified),-0.1
21,Cc1ccc(N2C(=O)/C(=C3/C(=O)N(C)c4ccccc43)SC2=S)cc1C,2
22,Cc1ccc(S(=O)(=O)CCc2nc3ccccc3[nH]2)cc1,-1.9
23,O=S(=O)(O)c1cccc2c(N=Cc3cc(Cl)cc(Cl)c3O)cccc12,6.8
24,Cn1c2ccccc2c2nnc(SCc3ccccc3)nc21,9.9

row,Compound,displacement [%]
1,CC(C)CNC(=O)C(=O)Nc1c(O)c2ccccc2[nH]c1=O,5.2
2,CC(Oc1ccc(Cl)cc1Cl)C(=O)N1CCN(c2ccc(Cl)cc2)CC1 (stereo unspecified),3.1
3,CC(/C=N/Nc1nnc2c(n1)[nH]c1ccccc12)=C\c1ccco1,7
4,O=C(c1ccccc1F)N1CCCc2ccccc21,-2.9
5,Cc1ccc(CCSc2c(Cl)cccc2Cl)cn1,9.2
6,COc1cc(/C=N/Nc2cc(N3CCCCC3)nc(N3CCCCC3)n2)ccc1O,4
7,CC1CCN(Cc2c(O)ccc3c(=O)c(-c4ccc(Cl)cc4)coc23)CC1,-17.7
8,Cc1ccc(Br)cc1S(=O)(=O)N1CCC(C)CC1,-2.6
9,Cc1sc2nc(SC/C=C/c3ccccc3)[nH]c(=O)c2c1C,-1.7
10,Cc1cc(C)c(NC(=O)CC#N)c(C)c1,5.7
11,COc1ccc(Br)cc1/C=N/NC(=O)C(C)Sc1nc(C)cc(C)n1 (stereo unspecified),8
12,O=C(CCN1C(=O)c2cccc3cccc(c23)C1=O)OCCCc1ccncc1,26.5
13,CCOC(=O)c1c(NC(=O)c2ccc(OC)cc2)sc(C(C)=O)c1C,0.7
14,Cc1onc(-c2ccccc2)c1C(=O)NCCC(c1ccccc1)c1ccccc1,-3.3
15,Cc1ccc(NC(=S)NC(=O)c2ccco2)c(C)c1,9.5
16,COc1cccc(C(=O)N2CCN(C3CCCC3)CC2)c1,-8.4
17,NC(=O)c1cc(-c2ccccc2)sc1N,-12
18,CCCCOc1ccc(C(=O)Nc2ccc(Cl)cn2)cc1,12
19,CCOC(=O)c1ccccc1N1C(=O)C2C3C=CC(C3)C2C1=O (stereo unspecified),47.2
20,O=C(CN(c1ccc(F)cc1)S(=O)(=O)c1ccccc1)NCc1ccc(Cl)cc1,12.4
21,O=C(Nc1cccc([N+](=O)[O-])c1)c1cc(S(=O)(=O)Nc2ccc(F)cc2)ccc1Cl,6.4
22,O=c1[nH]c(N2CCCCC2)nc2ncn(Cc3ccccc3)c12,1.6
23,CCOC(=O)c1c(NC(=S)NC(=O)c2ccccc2)sc2c1CC(C(C)C)OC2 (stereo unspecified),-7
24,COC(=O)c1cccc(-c2ccc(/C=C3/C(=O)NN(c4cccc(Cl)c4)C3=O)o2)c1,11.5

row,Compound,displacement [%]
1,CC(C)COc1ccc(C(=O)Nc2ccc(N3CCOCC3)cc2)cc1,9.7
2,Nc1ccc(-c2nnc(-c3ccncc3)o2)cc1,21
3,Cc1ccc(C(=O)Nc2cccc(C(=O)O)c2)cc1S(=O)(=O)N1CCCCC1,-15.6
4,COC(=O)/C(=C(/C)c1ccccc1)[N+](=O)[O-],-5.9
5,O=C(Oc1ccc(S(=O)(=O)c2ccc(OC(=O)c3ccncc3)cc2)cc1)c1ccncc1,11
6,CCOC(=O)c1c(-c2ccc(Cl)cc2)csc1NC(=O)COc1ccc(F)cc1,9.8
7,O=C(Nc1ccncc1)c1ccc([N+](=O)[O-])cc1,19.5
8,O=C1C=C(c2cccs2)CC(c2ccccc2)C1n1nnc([N+](=O)[O-])n1 (stereo unspecified),-4.9
9,Cc1cc(NC(=O)c2ccc(C)c([N+](=O)[O-])c2)ccc1Br,10.7
10,NNc1nc2sc3c(c2c(=O)n1Cc1ccccc1)CCCC3,-2.8
11,CC(=O)Oc1cc2ccccc2cc1-c1nc2n(n1)C(=O)CCS2,11.7
12,CCOC(=O)c1ccc(-n2c(C)cc(/C=C3\SC(=S)NC3=O)c2C)cc1,20.1
13,CCOC(=O)C1=C(C)OC(N)=C(C#N)C1c1c(C)c(C)cc(C)c1C (stereo unspecified),12.4
14,O=[N+]([O-])c1cc(C(F)(F)F)ccc1N1CCN(C/C=C/c2ccccc2)CC1,-6.4
15,COc1ccc(CNC(=O)c2c(-c3c(Cl)cccc3Cl)noc2C)cc1,0.9
16,CCOc1cc(/C=C2/C(=O)NN(c3ccc(Br)cc3)C2=O)ccc1O,-4.9
17,COc1ccc(C2CC(C(F)(F)F)n3nc(C(=O)NCc4cccs4)c(Cl)c3N2)cc1OC (stereo unspecified),1.1
18,O=C(c1cccs1)N1CCN(Cc2cccc(F)c2)CC1,7
19,Cc1cccc(NC(=O)C(=O)N/N=C/c2ccc(C)o2)c1,-14.6
20,CCc1ccc(NCCC(=O)c2ccc([N+](=O)[O-])cc2)cc1,-4.2
21,CNc1ccc([N+](=O)[O-])cc1-n1cnc(-c2ccc([N+](=O)[O-])cc2)c1,-4.4
22,CCc1ccc(C2Nc3ccccc3NC3=C2C(=O)CC(c2ccc(OC)cc2)C3)s1 (stereo unspecified),6
23,COc1cc(OC)c(CNc2ccc(C)c(C)c2)cc1Br,11.5
